For seven molecules, binding results are on record in paper PMC10076317, “Extended DNA threading through a dual-engine motor module of the activating signal co-integrator 1 complex” (Nature Communications, 2023).

Sequences of proteins named here, by UniProt entry; tags and fusion partners are left off. Residues count along the entry.
ASCC3 N-terminal region (ASCC3^NTR, residues 1-400) (Q8N3C0, residues 1-400): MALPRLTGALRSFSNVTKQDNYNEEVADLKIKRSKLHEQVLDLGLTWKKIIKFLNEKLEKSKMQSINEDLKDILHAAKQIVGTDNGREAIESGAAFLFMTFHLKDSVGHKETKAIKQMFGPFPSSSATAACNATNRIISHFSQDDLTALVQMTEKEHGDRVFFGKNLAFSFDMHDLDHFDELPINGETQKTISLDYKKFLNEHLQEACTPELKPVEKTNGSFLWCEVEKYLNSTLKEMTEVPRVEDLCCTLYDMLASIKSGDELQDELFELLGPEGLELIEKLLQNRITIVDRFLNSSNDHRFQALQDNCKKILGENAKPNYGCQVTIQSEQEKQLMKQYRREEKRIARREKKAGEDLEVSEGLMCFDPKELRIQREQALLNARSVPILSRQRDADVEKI
ASCC3 helicase region (ASCC3^HR, residues 401-2202) (Q8N3C0, residues 401-2202): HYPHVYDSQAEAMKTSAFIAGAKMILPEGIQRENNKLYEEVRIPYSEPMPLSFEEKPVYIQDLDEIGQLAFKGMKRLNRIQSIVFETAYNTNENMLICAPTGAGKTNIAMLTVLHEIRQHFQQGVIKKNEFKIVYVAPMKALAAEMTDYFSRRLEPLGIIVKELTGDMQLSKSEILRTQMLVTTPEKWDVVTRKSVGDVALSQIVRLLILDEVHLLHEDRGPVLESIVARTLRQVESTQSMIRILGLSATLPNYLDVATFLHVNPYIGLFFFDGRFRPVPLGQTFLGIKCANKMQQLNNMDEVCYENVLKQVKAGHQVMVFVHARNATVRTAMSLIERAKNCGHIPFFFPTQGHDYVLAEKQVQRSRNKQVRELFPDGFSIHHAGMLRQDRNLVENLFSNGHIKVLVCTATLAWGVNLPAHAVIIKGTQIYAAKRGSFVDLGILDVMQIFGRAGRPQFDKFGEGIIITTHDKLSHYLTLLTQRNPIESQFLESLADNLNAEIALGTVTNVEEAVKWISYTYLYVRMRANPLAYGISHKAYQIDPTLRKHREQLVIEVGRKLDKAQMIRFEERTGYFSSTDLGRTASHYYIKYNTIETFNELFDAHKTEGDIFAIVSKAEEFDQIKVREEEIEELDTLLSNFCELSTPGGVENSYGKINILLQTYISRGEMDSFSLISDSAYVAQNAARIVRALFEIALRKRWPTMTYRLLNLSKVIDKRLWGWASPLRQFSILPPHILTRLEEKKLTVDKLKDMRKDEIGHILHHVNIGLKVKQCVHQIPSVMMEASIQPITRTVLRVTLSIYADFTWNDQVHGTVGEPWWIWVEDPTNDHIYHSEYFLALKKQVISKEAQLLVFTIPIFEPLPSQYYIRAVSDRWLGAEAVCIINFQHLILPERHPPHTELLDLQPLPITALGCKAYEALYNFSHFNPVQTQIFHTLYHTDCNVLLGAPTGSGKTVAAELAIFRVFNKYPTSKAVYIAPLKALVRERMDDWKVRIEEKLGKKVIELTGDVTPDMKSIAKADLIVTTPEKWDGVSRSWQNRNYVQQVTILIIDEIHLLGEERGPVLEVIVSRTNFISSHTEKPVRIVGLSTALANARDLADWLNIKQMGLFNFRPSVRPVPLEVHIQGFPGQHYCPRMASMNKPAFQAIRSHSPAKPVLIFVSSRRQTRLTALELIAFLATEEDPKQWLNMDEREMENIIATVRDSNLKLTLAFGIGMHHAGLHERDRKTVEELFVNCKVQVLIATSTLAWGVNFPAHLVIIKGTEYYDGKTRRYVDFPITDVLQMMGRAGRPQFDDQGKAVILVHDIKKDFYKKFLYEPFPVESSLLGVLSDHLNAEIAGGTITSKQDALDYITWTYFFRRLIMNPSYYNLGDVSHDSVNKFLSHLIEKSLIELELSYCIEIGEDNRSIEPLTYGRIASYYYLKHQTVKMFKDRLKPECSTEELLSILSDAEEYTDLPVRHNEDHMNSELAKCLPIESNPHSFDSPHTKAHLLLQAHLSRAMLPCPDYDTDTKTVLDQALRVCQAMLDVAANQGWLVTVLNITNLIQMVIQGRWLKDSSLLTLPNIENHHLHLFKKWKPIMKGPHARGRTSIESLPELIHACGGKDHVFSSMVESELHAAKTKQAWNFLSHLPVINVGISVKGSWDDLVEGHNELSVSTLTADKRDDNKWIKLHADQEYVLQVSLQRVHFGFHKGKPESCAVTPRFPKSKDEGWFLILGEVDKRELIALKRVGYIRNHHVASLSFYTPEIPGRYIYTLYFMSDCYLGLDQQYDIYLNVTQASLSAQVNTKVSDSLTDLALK
UniProt Q8N9N2: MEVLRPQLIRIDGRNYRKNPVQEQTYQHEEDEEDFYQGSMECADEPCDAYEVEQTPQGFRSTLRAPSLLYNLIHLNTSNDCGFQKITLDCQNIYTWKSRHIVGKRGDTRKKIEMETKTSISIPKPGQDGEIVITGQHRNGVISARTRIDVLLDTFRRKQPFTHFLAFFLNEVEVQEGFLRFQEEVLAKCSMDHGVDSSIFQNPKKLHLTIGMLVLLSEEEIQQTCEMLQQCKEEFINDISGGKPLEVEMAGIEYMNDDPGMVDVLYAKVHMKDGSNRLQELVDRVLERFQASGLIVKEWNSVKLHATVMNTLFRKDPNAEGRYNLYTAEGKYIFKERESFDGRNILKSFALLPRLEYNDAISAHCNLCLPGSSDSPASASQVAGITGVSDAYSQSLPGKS

Results are given in words; binding and its absence hold for the method and conditions named. For some assays here: In cells and extracts the contact can be indirect. Some binding calls cover weakened binding; strength is not graded here. For some assays here: Where a sequence is shown, tags or fusion partners need not be part of it.

The target of assay [1] is T1, N-terminally Flag-tagged TRIP4^Δ1-276 (human) (UniProt Q15650).
T1 sequence: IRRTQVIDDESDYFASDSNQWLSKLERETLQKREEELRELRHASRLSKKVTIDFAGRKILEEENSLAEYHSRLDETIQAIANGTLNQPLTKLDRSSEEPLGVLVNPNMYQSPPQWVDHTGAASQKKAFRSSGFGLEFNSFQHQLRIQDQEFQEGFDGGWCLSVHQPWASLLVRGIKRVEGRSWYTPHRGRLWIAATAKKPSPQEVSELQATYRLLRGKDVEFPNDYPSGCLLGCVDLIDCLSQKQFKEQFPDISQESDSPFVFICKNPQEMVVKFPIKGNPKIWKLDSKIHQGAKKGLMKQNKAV
As to the kind of experiment: co-IP; Flag/His-tagged TRIP4 variants precipitated from cell lysates with α-Flag-M2 magnetic beads (50 mM Tris-HCl pH 7.4, 150 mM NaCl, 0.5 mM EDTA, 0.1% Triton-X-100, 10% glycerol), eluted with 3xFlag peptide; western blot for ASCC1, ASCC2, ASCC3. (In general: In western blotting, separated proteins are transferred to a membrane and probed.)

Assay [2] concerns the target T2, C-terminally Flag-tagged TRIP4^Δ403-581 (human) (UniProt Q15650).
T2 sequence: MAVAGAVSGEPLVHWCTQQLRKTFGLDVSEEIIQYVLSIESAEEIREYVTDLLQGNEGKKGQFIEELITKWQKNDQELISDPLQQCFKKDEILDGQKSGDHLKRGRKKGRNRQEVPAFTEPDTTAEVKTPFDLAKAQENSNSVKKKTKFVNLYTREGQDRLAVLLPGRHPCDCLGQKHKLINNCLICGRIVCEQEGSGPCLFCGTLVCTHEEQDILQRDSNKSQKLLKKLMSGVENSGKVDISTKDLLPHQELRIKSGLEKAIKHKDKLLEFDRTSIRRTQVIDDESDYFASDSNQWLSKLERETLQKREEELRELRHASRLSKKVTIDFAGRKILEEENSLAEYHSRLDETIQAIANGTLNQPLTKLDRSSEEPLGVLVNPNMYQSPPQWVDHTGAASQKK
The assay is described as above.

Assay [3] concerns the target T3, C-terminally Flag-tagged TRIP4^Δ1-276 (human) (UniProt Q15650).
T3 sequence: T1 sequence
The description is as above.

The target of assay [4] is T4, C-terminally Flag-tagged full-length TRIP4 (human) (UniProt Q15650).
T4 sequence: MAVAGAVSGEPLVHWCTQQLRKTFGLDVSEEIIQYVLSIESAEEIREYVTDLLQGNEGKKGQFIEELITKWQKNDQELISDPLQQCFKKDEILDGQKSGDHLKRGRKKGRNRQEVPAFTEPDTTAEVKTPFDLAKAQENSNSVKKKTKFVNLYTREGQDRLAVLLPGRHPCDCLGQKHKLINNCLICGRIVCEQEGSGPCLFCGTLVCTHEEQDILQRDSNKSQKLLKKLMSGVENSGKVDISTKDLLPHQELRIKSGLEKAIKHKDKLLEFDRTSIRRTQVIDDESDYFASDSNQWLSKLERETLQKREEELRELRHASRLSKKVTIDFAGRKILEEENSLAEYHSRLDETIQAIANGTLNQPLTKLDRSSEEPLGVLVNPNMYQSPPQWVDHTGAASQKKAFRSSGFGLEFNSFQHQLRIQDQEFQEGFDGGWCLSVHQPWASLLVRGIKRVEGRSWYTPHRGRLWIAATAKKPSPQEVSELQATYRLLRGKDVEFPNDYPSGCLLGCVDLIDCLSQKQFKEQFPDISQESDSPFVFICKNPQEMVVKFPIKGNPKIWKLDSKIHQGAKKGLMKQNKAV
Described as above.

Assay [5] addresses T5, N-terminally Flag-tagged TRIP4^Δ403-581 (human) (UniProt Q15650).
T5 sequence: T2 sequence
The description is as above.

The target in assay [6] is T6, N-terminally Flag-tagged full-length TRIP4 (human) (UniProt Q15650).
T6 sequence: T4 sequence
The description is as above.

Assay [7] has as its target ASCC3 helicase region (ASCC3^HR, residues 401-2202) (human) (UniProt Q8N3C0). As to the kind of experiment: condition: 100 pmol ASCC3^HR, two to tenfold molar excess of the other protein, 80 µl; SEC; analytical SEC, Superdex 200 3.2/300; 20 mM HEPES-NaOH pH 7.5, 250 mM NaCl, 5% glycerol, 1 mM DTT; 100 pmol ASCC3^HR mixed with other proteins in two to tenfold molar excess in 80 µl, 30 min on ice; fractions by SDS-PAGE; both purified.

Assay [8] deals with ASCC3 N-terminal region (ASCC3^NTR, residues 1-400) (human) (UniProt Q8N3C0). As to the kind of experiment: SEC; analytical SEC, Superdex 200 3.2/300; 20 mM HEPES-NaOH pH 7.5, 250 mM NaCl, 5% glycerol, 1 mM DTT; 100 pmol ASCC3^HR mixed with other proteins in two to tenfold molar excess in 80 µl, 30 min on ice; fractions by SDS-PAGE; both purified. For orientation: In gel filtration, larger molecules generally elute earlier.

In the case of “ASCC1 (activating signal co-integrator 1 complex subunit 1), endogenous (from UniProt Q8N9N2 1-400)”, the binding entry in assay [1] was “no binding”; in assay [2], “binds”; in assay [3], “no binding”; in assay [4], “binds”; in assay [5] it was “binds”; in assay [6], “binds”.

B1: TRIP4^403-581 (domain or fragment, UniProt Q15650 403-581)
chain: AFRSSGFGLEFNSFQHQLRIQDQEFQEGFDGGWCLSVHQPWASLLVRGIKRVEGRSWYTPHRGRLWIAATAKKPSPQEVSELQATYRLLRGKDVEFPNDYPSGCLLGCVDLIDCLSQKQFKEQFPDISQESDSPFVFICKNPQEMVVKFPIKGNPKIWKLDSKIHQGAKKGLMKQNKAV
For B1, in assay [7], the binding entry was “no binding”.

B2: TRIP4^281-581 (domain or fragment, UniProt Q15650 281-581)
chain: QVIDDESDYFASDSNQWLSKLERETLQKREEELRELRHASRLSKKVTIDFAGRKILEEENSLAEYHSRLDETIQAIANGTLNQPLTKLDRSSEEPLGVLVNPNMYQSPPQWVDHTGAASQKKAFRSSGFGLEFNSFQHQLRIQDQEFQEGFDGGWCLSVHQPWASLLVRGIKRVEGRSWYTPHRGRLWIAATAKKPSPQEVSELQATYRLLRGKDVEFPNDYPSGCLLGCVDLIDCLSQKQFKEQFPDISQESDSPFVFICKNPQEMVVKFPIKGNPKIWKLDSKIHQGAKKGLMKQNKAV
On to B2, for which, in assay [7], the binding entry is recorded as “no binding”.

B3: TRIP4^281-403 (domain or fragment, UniProt Q15650 281-403)
chain: QVIDDESDYFASDSNQWLSKLERETLQKREEELRELRHASRLSKKVTIDFAGRKILEEENSLAEYHSRLDETIQAIANGTLNQPLTKLDRSSEEPLGVLVNPNMYQSPPQWVDHTGAASQKKA
On to B3, for which the binding entry in assay [7] is on record as “no binding”.

B4: TRIP4^1-80 (domain or fragment, UniProt Q15650 1-80)
chain: MAVAGAVSGEPLVHWCTQQLRKTFGLDVSEEIIQYVLSIESAEEIREYVTDLLQGNEGKKGQFIEELITKWQKNDQELIS
As to B4, the binding entry in assay [7] is recorded as “no binding”.

B5: TRIP4, full length, co-produced with ASCC3^HR in insect cells (natural protein, human, UniProt Q15650 1-581, looked up)
chain: T4 sequence
Consider B5, for which the binding entry in assay [8] is reported as “no binding”.

B6: ASCC2 (activating signal co-integrator 1 complex subunit 2), endogenous (protein, UniProt Q9H1I8 1-757)
chain: MPALPLDQLQITHKDPKTGKLRTSPALHPEQKADRYFVLYKPPPKDNIPALVEEYLERATFVANDLDWLLALPHDKFWCQVIFDETLQKCLDSYLRYVPRKFDEGVASAPEVVDMQKRLHRSVFLTFLRMSTHKESKDHFISPSAFGEILYNNFLFDIPKILDLCVLFGKGNSPLLQKMIGNIFTQQPSYYSDLDETLPTILQVFSNILQHCGLQGDGANTTPQKLEERGRLTPSDMPLLELKDIVLYLCDTCTTLWAFLDIFPLACQTFQKHDFCYRLASFYEAAIPEMESAIKKRRLEDSKLLGDLWQRLSHSRKKLMEIFHIILNQICLLPILESSCDNIQGFIEEFLQIFSSLLQEKRFLRDYDALFPVAEDISLLQQASSVLDETRTAYILQAVESAWEGVDRRKATDAKDPSVIEEPNGEPNGVTVTAEAVSQASSHPENSEEEECMGAAAAVGPAMCGVELDSLISQVKDLLPDLGEGFILACLEYYHYDPEQVINNILEERLAPTLSQLDRNLDREMKPDPTPLLTSRHNVFQNDEFDVFSRDSVDLSRVHKGKSTRKEENTRSLLNDKRAVAAQRQRYEQYSVVVEEVPLQPGESLPYHSVYYEDEYDDTYDGNQVGANDADSDDELISRRPFTIPQVLRTKVPREGQEEDDDDEEDDADEEAPKPDHFVQDPAVLREKAEARRMAFLAKKGYRHDSSTAVAGSPRGHGQSRETTQERRKKEANKATRANHNRRTMADRKRSKGMIPS
As for B6, the binding result in assay [1] was “no binding”; in assay [2], “binds”; in assay [3], “no binding”; in assay [4], “binds”; in assay [5] it was “binds”; in assay [6], “binds”.
